This is one part of the list.

This test has as its system HSkMC (human skeletal muscle cells). Kind of test: cytotoxicity call (relative viability < 0.9). To be noted: 10 µM.
For the molecule `O=C1OCCC=C[C@H]2O[C@@]34C=CCN(c5ccc6ccccc6c5)C(=O)[C@H]3N(CCCCCO)C(=O)[C@@H]4[C@@H]12`, the cytotoxicity call is “inactive”.
The entry for `COc1ccc(CN(C)C[C@H]2Oc3ccc(NC(=O)Cn4cnnn4)cc3CC(=O)N([C@@H](C)CO)C[C@@H]2C)cc1` is “inactive”; for `COc1ccc(CN(C)C[C@@H]2OCCCC[C@H](C)Oc3ccc(NS(=O)(=O)c4ccccc4)cc3C(=O)N([C@H](C)CO)C[C@@H]2C)cc1` it is “inactive”.
The result for `C[C@H](CO)N1C[C@H](C)[C@@H](CN(C)Cc2ccc(Oc3ccccc3)cc2)OCc2ccccc2-c2ccccc2C1=O` reads “inactive”.
The result for `COC(=O)[C@@H](N)c1cccc(OC)c1` reads “inactive”.
For `O=S1(=O)CCN(CCc2ccccc2)CC1`, the cytotoxicity call was “inactive”.
The result for `O=C1N[C@@H](CC(=O)N2CCN(CCc3ccncc3)CC2)C(=O)Nc2ccccc21` reads “inactive”; that for `C[C@H](O)C#Cc1ccc2c(c1)O[C@H](CN(C)C(=O)c1ccncc1)[C@H](C)CN([C@@H](C)CO)S2(=O)=O`, “inactive”.
Regarding `CCC1OC(=O)C(C)C(OC2CC(C)(OC)C(O)C(C)O2)C(C)C(OC2OC(C)CC(N(C)C)C2O)C(C)(O)CC(C)C2NC(COCCOC)OC(C2C)C1(C)O` (configuration not stated), the cytotoxicity call was “inactive”.
The result for `C[C@H]1CN([C@@H](C)CO)C(=O)c2cc(NC(=O)c3ccncc3)ccc2O[C@@H]1CN(C)Cc1ccc(C(=O)O)cc1` reads “inactive”; that for `C[C@@H]1CN([C@@H](C)CO)S(=O)(=O)c2ccc(C#CC3CC3)cc2O[C@H]1CN(C)C(=O)C1CCCCC1`, “inactive”; that for `C[C@H](CO)N1C[C@H](C)[C@@H](CN(C)C(=O)Nc2ccc3c(c2)OCO3)OCCCC[C@H](C)Oc2ccc(NC(=O)Cc3ccccc3)cc2C1=O`, “inactive”.

The values are drawn from the antibiotic and cytotoxicity screens of Wong et al. (2023).
